Patent US11000038B2, “Pyridone compounds and agricultural and horticultural fungicides containing the same as active ingredients” (priority 2017, dated 2021)

Columns and labels:
[1] = system: grape downy mildew fungus (Plasmopara viticola); assay: Test Example G: grape downy mildew, spray treatment of grape plants; details: for Test G control value: grape downy mildew, 7 to 10 days after inoculation; for Test G control value class (grape downy mildew): 2.5 ml/pot, grape Neomuscat, 7 to 10 days from inoculation
[2] = system: wheat brown rust fungi (Puccinia recondita); assay: Test Example E: wheat brown rust, spray treatment of wheat plants; type: in vivo; details: for Test E control value: wheat brown rust; for Test E control value class (wheat brown rust): control value=100{1-(n/3)}
[3] = system: cabbage Alternaria sooty spot fungi (Alternaia brassicicola); assay: Test Example C: cabbage Alternaria sooty spot, spray treatment of cabbage plants; type: in vivo; details: for Test C control value: cabbage Alternaria sooty spot; for Test C control value class (cabbage Alternaria sooty spot): control value=100{1-(n/3)}
Source text: [Test Example C] Cabbage Alternaria Sooty Spot
Test plants (cabbage variety: Shikidori) were cultivated until the cotyledons extended after the sowing of seeds.
<Control Value> Control value=100{1−(n/3)}

[4] = system: gray mold fungi (Botrytis cinerea); assay: Test Example B: tomato gray mold, spray treatment of tomato plants; details: for Test B control value: tomato gray mold; for Test B control value class (tomato gray mold): control value=100{1-(n/3)}
[5] = system: barley powdery mildew fungi (Blumeria graminis f. sp. hordei); assay: Test Example D: barley powdery mildew, spray treatment of barley plants; details: for Test D control value: barley powdery mildew; for Test D control value class (barley powdery mildew): control value=100{1-(n/3)}
[6] = spray treatment of wheat plants
[7] = spray treatment of cabbage plants
[8] = spray treatment of tomato plants
[9] = spray treatment of barley plants

Row | SMILES | Test G control value ([1]; 250 ppm spray (2.5 ml/pot)) | Test E control value [2, 6] | Test C control value [3, 7] | Test B control value [4, 8] | Test D control value [5, 9] | Test G control value class (grape downy mildew) ([1]; 250 ppm spray) | Test E control value class (wheat brown rust) [2, 6] | Test C control value class (cabbage Alternaria sooty spot) [3, 7] | Test B control value class (tomato gray mold) [4, 8] | Test D control value class (barley powdery mildew) [5, 9] | other results
1 | CCCc1ccccc1-n1cc(Cl)c(=O)c(Br)c1-c1c(F)cc(F)cc1F [Compound 447] | – | – | – | – | – | – | – | – | – | – | Test G control value ([1]; 250 ppm spray): L (L shows the control value of 50% or less); Test E control value ([2]; spray treatment): H (H shows the control value of more than 50%); Test C control value ([3]; spray treatment): H (H shows the control value of more than 50%); Test B control value ([4]; spray treatment): H (H shows the control value of more than 50%); Test D control value ([5]; spray treatment): H (H shows the control value of more than 50%)
2 | Cc1cccc(C)c1-n1cc(Cl)c(=O)c(Br)c1-c1ccc(F)cc1 [Compound 344] | L (L shows the control value of 50% or less) | L (L shows the control value of 50% or less) | H (H shows the control value of more than 50%) | L (L shows the control value of 50% or less) | L (L shows the control value of 50% or less) | – | – | – | – | – | –
3 | Cc1ccccc1-n1cc(C)c(=O)c(C)c1-c1c(Cl)cncc1Cl [Compound 252] | L (L shows the control value of 50% or less) | H (H shows the control value of more than 50%) | H (H shows the control value of more than 50%) | H (H shows the control value of more than 50%) | L (L shows the control value of 50% or less) | – | – | – | – | – | –
4 | Cc1cccc(Cl)c1-n1cc(Cl)c(=O)c(Br)c1-c1ccc(F)cc1 [Compound 381] | – | – | – | – | – | – | – | – | – | – | Test G control value ([1]; 250 ppm spray): L (L shows the control value of 50% or less); Test E control value ([2]; spray treatment): H (H shows the control value of more than 50%); Test C control value ([3]; spray treatment): L (L shows the control value of 50% or less); Test B control value ([4]; spray treatment): L (L shows the control value of 50% or less); Test D control value ([5]; spray treatment): L (L shows the control value of 50% or less)
5 | Cc1ccccc1-n1cc(C(F)(F)F)c(=O)c(Cl)c1-c1c(F)cc(F)cc1F [Compound 182] | – | – | – | – | – | L (L shows the control value of 50% or less) | H (H shows the control value of more than 50%) | L (L shows the control value of 50% or less) | H (H shows the control value of more than 50%) | H (H shows the control value of more than 50%) | –
6 | COc1cc(F)c(-c2c(Br)c(=O)c(Cl)cn2C2CCCCC2)c(F)c1 [Compound 27] | – | – | – | – | – | H (H shows the control value of more than 50%) | H (H shows the control value of more than 50%) | H (H shows the control value of more than 50%) | H (H shows the control value of more than 50%) | H (H shows the control value of more than 50%) | –
7 | O=c1c(Cl)cn(-c2cccc(Br)c2)c(-c2c(F)cc(F)cc2F)c1Cl [Compound 120] | – | – | – | – | – | L (L shows the control value of 50% or less) | H (H shows the control value of more than 50%) | H (H shows the control value of more than 50%) | H (H shows the control value of more than 50%) | L (L shows the control value of 50% or less) | –
8 | COc1cc(F)c(-c2c(Cl)c(=O)c(Br)cn2C(C)C(C)C)c(F)c1 (stereo not shown) [Compound 51] | – | – | – | – | – | L (L shows the control value of 50% or less) | H (H shows the control value of more than 50%) | H (H shows the control value of more than 50%) | H (H shows the control value of more than 50%) | H (H shows the control value of more than 50%) | –
9 | COc1ccccc1-n1cc(Cl)c(=O)c(Cl)c1-c1c(F)cc(F)cc1F [Compound 75] | – | – | – | – | – | L (L shows the control value of 50% or less) | H (H shows the control value of more than 50%) | H (H shows the control value of more than 50%) | H (H shows the control value of more than 50%) | L (L shows the control value of 50% or less) | –
10 | COc1cc(F)c(-c2c(Br)c(=O)c(Cl)cn2C(C)c2ccccc2)c(F)c1 (stereo not shown) [Compound 82] | – | – | – | – | – | H (H shows the control value of more than 50%) | H (H shows the control value of more than 50%) | H (H shows the control value of more than 50%) | H (H shows the control value of more than 50%) | L (L shows the control value of 50% or less) | –
11 | C#CCOc1ccc(CC)c(-n2cc(C)c(=O)c(C)c2-c2c(F)cccc2F)c1 [Compound 625] | – | – | – | – | – | – | – | – | – | – | Test G control value ([1]; 250 ppm spray): L (L shows the control value of 50% or less); Test E control value ([2]; spray treatment): H (H shows the control value of more than 50%); Test C control value ([3]; spray treatment): H (H shows the control value of more than 50%); Test B control value ([4]; spray treatment): H (H shows the control value of more than 50%); Test D control value ([5]; spray treatment): H (H shows the control value of more than 50%)
12 | COc1cccc(F)c1-c1c(Cl)c(=O)c(Br)cn1-c1ccc(Br)cc1 [Compound 612] | – | – | – | – | – | – | – | – | – | – | Test G control value ([1]; 250 ppm spray): H (H shows the control value of more than 50%); Test E control value ([2]; spray treatment): L (L shows the control value of 50% or less); Test C control value ([3]; spray treatment): L (L shows the control value of 50% or less); Test B control value ([4]; spray treatment): L (L shows the control value of 50% or less); Test D control value ([5]; spray treatment): L (L shows the control value of 50% or less)
13 | COC(=O)c1ccc(-c2c(C)c(=O)c(C)cn2-c2ccccc2C)cc1 [Compound 243] | L (L shows the control value of 50% or less) | L (L shows the control value of 50% or less) | H (H shows the control value of more than 50%) | H (H shows the control value of more than 50%) | L (L shows the control value of 50% or less) | – | – | – | – | – | –
14 | CCc1c(-c2c(F)cccc2F)n(-c2cc(Br)ccc2C)cc(Br)c1=O [Compound 561] | – | – | – | – | – | – | – | – | – | – | Test G control value ([1]; 250 ppm spray): H (H shows the control value of more than 50%); Test E control value ([2]; spray treatment): H (H shows the control value of more than 50%); Test C control value ([3]; spray treatment): H (H shows the control value of more than 50%); Test B control value ([4]; spray treatment): H (H shows the control value of more than 50%); Test D control value ([5]; spray treatment): L (L shows the control value of 50% or less)
15 | Cc1ccccc1-n1cc(Br)c(=O)c(Br)c1-c1ccc(F)cc1 [Compound 236] | L (L shows the control value of 50% or less) | H (H shows the control value of more than 50%) | H (H shows the control value of more than 50%) | H (H shows the control value of more than 50%) | L (L shows the control value of 50% or less) | – | – | – | – | – | –
16 | Cc1ccc(Br)cc1-n1cc(Br)c(=O)c(Br)c1-c1c(F)cc(F)cc1F [Compound 248] | L (L shows the control value of 50% or less) | H (H shows the control value of more than 50%) | H (H shows the control value of more than 50%) | H (H shows the control value of more than 50%) | L (L shows the control value of 50% or less) | – | – | – | – | – | –
17 | CC(=O)c1cn(-c2ccccc2C)c(-c2c(F)cc(F)cc2F)c(C)c1=O [Compound 277] | L (L shows the control value of 50% or less) | H (H shows the control value of more than 50%) | H (H shows the control value of more than 50%) | H (H shows the control value of more than 50%) | L (L shows the control value of 50% or less) | – | – | – | – | – | –
18 | O=c1c(Cl)cn(-c2ccon2)c(-c2c(F)cc(F)cc2F)c1Br [Compound 129] | – | – | – | – | – | L (L shows the control value of 50% or less) | H (H shows the control value of more than 50%) | H (H shows the control value of more than 50%) | H (H shows the control value of more than 50%) | L (L shows the control value of 50% or less) | –
19 | CCOCOc1ccc(C)c(-n2cc(Cl)c(=O)c(Cl)c2-c2c(F)cc(F)cc2F)c1 [Compound 303] | L (L shows the control value of 50% or less) | H (H shows the control value of more than 50%) | H (H shows the control value of more than 50%) | H (H shows the control value of more than 50%) | L (L shows the control value of 50% or less) | – | – | – | – | – | –
20 | O=c1c(Cl)cn(Cc2ccccc2Cl)c(-c2c(F)cc(F)cc2F)c1Cl [Compound 79] | – | – | – | – | – | L (L shows the control value of 50% or less) | L (L shows the control value of 50% or less) | H (H shows the control value of more than 50%) | L (L shows the control value of 50% or less) | L (L shows the control value of 50% or less) | –
